According to the supplement of paper PMC10126150:
Values marked as one replicate rest on one cluster of the flow cell; about a third of the high ones do not repeat.

System: ATP
Assay: switch fluorescence ratio, 500 uM ATP over buffer (Cy3 cluster intensity, sum of 5 cycles each) (fold (ratio)); higher = stronger signal-on switching upon ATP binding; sequences stand for … in TCGTCGGCAGCGTCAGATGTGTATAAGAGACAGTTTTTTTTTTTTTTTTTTTTTTTTT…TC
Details: aptamer strand: ATP DNA aptamer (quencher-CACCTGGGGGAGTATTGCGGAGGAAGG + anchor), 100 nM annealed; ATP concentration: 500 uM; one replicate
Summary of the method: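 Switching-strand clusters labelled with Cy3 on a modified Illumina MiSeq flow-cell were annealed to 100 nM quencher-labelled ATP aptamer, imaged in selection buffer, and re-imaged after 15 min with 500 uM ATP at 22 °C. This was done over five cycles with NaOH stripping and re-annealing in between. The fluorescence ratio is summed target-cycle over summed buffer-cycle Cy3 intensity per cluster, averaged per switch-domain sequence, excluding clusters outside 100-1000 RFU.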
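Further: ATP exposure 15 min at 22 °C before imaging.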

CACATTGCTA
switch fluorescence ratio: 0.994

AAGTCTGCTG
switch fluorescence ratio: 1.07

GGGAACGAGA
switch fluorescence ratio: 0.971

ATGGATTAC
switch fluorescence ratio: 1.05

CATGCTGCTA
switch fluorescence ratio: 1

AATATGTATT
switch fluorescence ratio: 0.986

CGGGGTCTTT
switch fluorescence ratio: 0.968

AGGATGCATA
switch fluorescence ratio: 0.955

AGCGTGTGTT
switch fluorescence ratio: 1.02

GATATTATCT
switch fluorescence ratio: 1.01

TAGCTCATGC
switch fluorescence ratio: 1

ATCGTATTG
switch fluorescence ratio: 1.01

AACTTGGACA
switch fluorescence ratio: 0.958

GTGATCACTG
switch fluorescence ratio: 0.965

CGTTGCCGCC
switch fluorescence ratio: 1.03

ACCATGGGGA
switch fluorescence ratio: 0.97

TTGAAGCTTT
switch fluorescence ratio: 1.75

GCTAGCTGTA
switch fluorescence ratio: 1.04

TCAGAGAAGT
switch fluorescence ratio: 0.997

AGAAAGCGTA
switch fluorescence ratio: 1.04

ATGTCAACCG
switch fluorescence ratio: 1.03

CGATGCCGGG
switch fluorescence ratio: 1.02

AATCCGAACA
switch fluorescence ratio: 1.05

AACCCCGGAA
switch fluorescence ratio: 2.21

CTTGGTTCCG
switch fluorescence ratio: 1.25

CATGGGACTC
switch fluorescence ratio: 1.03

ATGACGCCGC
switch fluorescence ratio: 1.76

AACGCATCAC
switch fluorescence ratio: 5.45

GATTTTTGT
switch fluorescence ratio: 0.984

GGTTCTCGTC
switch fluorescence ratio: 0.989

TGGTCTATAT
switch fluorescence ratio: 1.04

CTAACATCCC
switch fluorescence ratio: 1.02

CGGAAGAAGT
switch fluorescence ratio: 0.986

TGTTCATGGT
switch fluorescence ratio: 0.978

TGTAGGATGG
switch fluorescence ratio: 1.02

GATTGTCTGA
switch fluorescence ratio: 0.999

CGCCGTAGAT
switch fluorescence ratio: 1.05

TAGTATCATC
switch fluorescence ratio: 0.965

ATTGTTCGAC
switch fluorescence ratio: 1.02

TTTGAACCCG
switch fluorescence ratio: 1.02

CAGGCGGCTC
switch fluorescence ratio: 1.01

TAAAATTACA
switch fluorescence ratio: 1.23

ATCAAAGAAT
switch fluorescence ratio: 1.04

GAGGTATAGA
switch fluorescence ratio: 1.03

GGGCTACTTA
switch fluorescence ratio: 0.978

ACCCGGTGGG
switch fluorescence ratio: 0.985

ACGCCCAGCT
switch fluorescence ratio: 1.19

CTGTGCGACT
switch fluorescence ratio: 1.02

TGAATATAAG
switch fluorescence ratio: 0.997

AACAAAGAGT
switch fluorescence ratio: 1.02

CCCGGATCGT
switch fluorescence ratio: 1

TTCTCACAAA
switch fluorescence ratio: 0.97

GGCCCTGCAC
switch fluorescence ratio: 0.998

ATCAATCTTC
switch fluorescence ratio: 1.03

TACCATCTTT
switch fluorescence ratio: 0.975

TAGAGACGAG
switch fluorescence ratio: 0.931

GAACGGTGGT
switch fluorescence ratio: 1.02

TGGGTAGCGG
switch fluorescence ratio: 0.962

GGAAGAGATT
switch fluorescence ratio: 1.02

ATTGAAGTCC
switch fluorescence ratio: 1.02

CTAGGTCGCG
switch fluorescence ratio: 1.03

TAGACCGTTT
switch fluorescence ratio: 0.973

TGTAGGCTTA
switch fluorescence ratio: 1.02

TGCCGTAC
switch fluorescence ratio: 1.02

AAGACCGACG
switch fluorescence ratio: 1.19

AATTACTTG
switch fluorescence ratio: 1.04

AGAGATGACT
switch fluorescence ratio: 1.01

GGGGTTTCAA
switch fluorescence ratio: 0.97

GATATTCAAA
switch fluorescence ratio: 1.03

CCCGTGGATG
switch fluorescence ratio: 1.02

CAGGGTATTA
switch fluorescence ratio: 0.994

ACAGAGAGTT
switch fluorescence ratio: 1.02

GAGTTGATTA
switch fluorescence ratio: 1.01

TATAATGAG
switch fluorescence ratio: 1.02

TCATTCTGCA
switch fluorescence ratio: 1.08

AGAGAAGAAA
switch fluorescence ratio: 0.947

CGCCGTATGT
switch fluorescence ratio: 1.05

AACTGGAGCT
switch fluorescence ratio: 1.11

TCATAGTGTA
switch fluorescence ratio: 0.999

ACCGAGTGTG
switch fluorescence ratio: 1

GCCAATAGAC
switch fluorescence ratio: 1.76

CTGCGATATT
switch fluorescence ratio: 1.74

TAGTCCTTTA
switch fluorescence ratio: 1.05

GAGTAAATG
switch fluorescence ratio: 1

CTAAGGGTGT
switch fluorescence ratio: 1.01
